# Experimental data: PubChem BioAssay AID624417 (National Center for Advancing Translational Sciences (NCATS), 2012)
# Screen size: about 410,000 compounds; about 6,400 (1.6%) were called active. Inconclusive means that the source gave no clear call. Such entries were picked first, then a sample of the others. Calls come from the whole dose curve; as a rule, active = well fitted inhibition curve with a large enough effect; inconclusive = small, poorly fitted or top-dose-only effect; inactive = no such curve, though single readings can be large or run the other way. No potency is given beside an inconclusive call; the fits are too rough.
# Molecular target: Glucagon-like peptide 1 receptor (Homo sapiens) (UniProt P43220)
# UniProt P43220, sequence (P43220 whole entry, looked up): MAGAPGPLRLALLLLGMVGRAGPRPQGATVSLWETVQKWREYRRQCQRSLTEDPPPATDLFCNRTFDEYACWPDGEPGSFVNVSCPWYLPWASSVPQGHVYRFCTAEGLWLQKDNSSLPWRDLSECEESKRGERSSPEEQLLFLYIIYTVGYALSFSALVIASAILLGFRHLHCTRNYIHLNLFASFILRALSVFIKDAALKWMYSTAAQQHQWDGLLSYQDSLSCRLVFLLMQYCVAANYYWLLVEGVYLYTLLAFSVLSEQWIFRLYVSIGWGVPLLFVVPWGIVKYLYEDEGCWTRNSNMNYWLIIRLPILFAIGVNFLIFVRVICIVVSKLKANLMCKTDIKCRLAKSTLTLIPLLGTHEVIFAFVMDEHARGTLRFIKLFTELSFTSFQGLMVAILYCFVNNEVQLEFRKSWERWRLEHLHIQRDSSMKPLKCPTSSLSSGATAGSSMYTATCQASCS
# Experiment: qHTS of GLP-1 Receptor Inverse Agonists (Inhibition Mode); note: nearly all actives have a fitted effect of over 55% in size
# Conditions: HEK293 GLP-1R CRE-luciferase, luminescence, 24 h, GLP-1R form is constitutively active; series mostly up to 38.3 µM
# In short: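 Assay principle: reduced luminescence from a cAMP-responsive reporter in HEK293 cells co-expressing a constitutively active GLP-1R. Conditions: 24 hr compound incubation, 37 deg C, 5% CO2.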
# Potency is the fitted concentration of half-maximal effect; tags give direction and shape of the fitted curve.
row,SMILES,Potency
1,CN(C)S(=O)(=O)c1ccc(Cl)c(NC(=O)CN2CCc3ccccc3C2)c1,"inconclusive [inhibitor, single point]"
2,O=C(NCc1ccccc1)c1ccc(C(=O)N(C2CCCCC2)C2CCCCC2)cc1,inactive
3,Cc1cccc(-c2nc(CN3CCN(Cc4cccc(F)c4)CC3)c(C)o2)c1,"inconclusive [inhibitor, partial curve, poor fit]"
4,CCOc1ccc(NC(=S)N2CCN(C/C=C/c3ccccc3)CC2)cc1,"inconclusive [inhibitor, partial curve, poor fit]"
5,Oc1c(Cl)cc(Cl)cc1CNc1ccccn1,"inconclusive [inhibitor, single point]"
6,O[C@@H]1CN(C2CCCCC2)CC[C@H]1N1CCN(CCc2ccccc2)CC1,"inconclusive [inhibitor, single point]"
7,COc1ccccc1NC(=O)C(C)OC(=O)c1cccc(-n2cnnn2)c1 (stereo not drawn),inactive
8,O=C(/C=C\c1ccco1)NC(=S)Nc1ccccc1O,inactive
9,CCOC(=O)c1c(C)oc2c1c(C(c1cccnc1)N1CCOCC1)c(O)c1ccccc12 (stereo not drawn),inactive
10,CC(C)(C)OC(=O)NN1CC(=O)N2[C@@H](Cc3c([nH]c4ccccc34)C2(C)C)C1=O,"inconclusive [inhibitor, single point]"
11,Cc1cccc(/N=C/c2c(O)ccc3oc4c(c23)CCCC4)n1,"inconclusive [inhibitor, partial curve]"
12,COc1ccc(-c2cc(CCCC(=O)NCCc3cc(OC)ccc3OC)no2)cc1,"inconclusive [inhibitor, partial curve, poor fit]"
13,CCCC(=O)N1CC(=O)Nc2ccc(Br)cc2C1c1ccc(F)cc1 (stereo not drawn),"inconclusive [inhibitor, single point]"
14,COc1ccc(OC)c(CCNC(=O)Cn2cccc2C(=O)c2ccccc2C)c1,"inconclusive [inhibitor, single point]"
15,CN(C)CCNC(=O)/C(=C/c1ccc(-c2ccc(Cl)cc2)o1)NC(=O)c1ccccc1,"inconclusive [inhibitor, partial curve, poor fit]"
16,CCCN(c1ccccc1F)S(=O)(=O)c1ccc2c(c1)C(C)(C)C(=O)N2C,inactive
17,Cc1cc(-c2nc(-c3ccc(C(C)(C)C)cc3)no2)no1,inactive
18,Cc1cc(NC(=O)OC2CCCCC2)ccc1[N+](=O)[O-],"inconclusive [inhibitor, partial curve, poor fit]"
19,COc1ccc(-c2nc(NC(=O)c3ccco3)sc2C)cc1,"inconclusive [inhibitor, single point]"
20,Cc1ccc(-n2[nH]c(=O)c3cccnc32)cc1,inactive
21,COC(=O)c1ccc(NC(=O)CSC2=NCCN2)cc1,"inconclusive [inhibitor, single point]"
22,C/C(=N\NC(=S)NCc1ccccc1)c1ccc2ccccc2c1,"inconclusive [inhibitor, full curve]"

row,SMILES,Potency
1,CCOC(=O)C1(Cc2ccccc2Cl)CCN(Cc2csc(C(C)=O)c2)CC1,"inconclusive [inhibitor, partial curve, poor fit]"
2,Cc1ccc(NC(=O)CSc2nc3ccccc3c(=O)n2CCCC(=O)N2CCCC2)cc1,"inconclusive [inhibitor, full curve, poor fit]"
3,Cc1[nH]c2ccc(C(=O)NCCCN3CCCCC3)cc2c1C,inactive
4,Cc1ccsc1C(=O)Nc1ccc2c(c1)OCCO2,"inconclusive [inhibitor, single point]"
5,CCOc1ccc(NC(=O)CN(C)C(=O)C2COc3ccccc3O2)cc1OCC (stereo not drawn),"inconclusive [inhibitor, single point]"
6,O=C(Cn1cc(COc2ccc3ccc(=O)oc3c2)nn1)c1ccc(O)cc1,inactive
7,Cc1cc(C)c2ccc3c(C)c(C)nc3c2[nH]1,"inconclusive [inhibitor, partial curve, poor fit]"
8,CCc1c(-c2ccccc2)nc2ccccc2c1C(=O)NC(C)c1ccccc1 (stereo not drawn),"inconclusive [inhibitor, single point]"
9,CCOC(=O)C1CCCN(S(=O)(=O)c2cc(-c3onc(C)c3C)ccc2OC)C1 (stereo not drawn),inactive
10,CCc1ccc(-c2cc(C)no2)cc1S(=O)(=O)N1CCC(C)CC1,"inconclusive [inhibitor, single point]"
11,CCCCCCN1C=CC=C/C1=C/C=C(C#N)C#N,inactive
12,COc1ccc(-c2cccc(CCC(=O)N3CCN(c4cc(C)ccc4C)CC3)c2)cc1,"inconclusive [inhibitor, partial curve, poor fit]"
13,Cc1ccc(-c2nsc(SCC(=O)NCC3CCCO3)n2)cc1 (stereo not drawn),"inconclusive [inhibitor, single point]"
14,CCN1CCN(c2ccc(S(=O)(=O)N3CCCCC3)cc2NC(=O)COc2ccc(Cl)cc2)CC1,"inconclusive [inhibitor, single point]"
15,Nc1c(N(CCC2=CCCCC2)C(=O)c2ccc([N+](=O)[O-])o2)c(=O)[nH]c(=O)n1Cc1ccccc1,"inconclusive [inhibitor, single point]"
16,Cc1c(C(=O)OCC(=O)N(C)c2ccccc2)oc2ccccc12,"inconclusive [inhibitor, single point]"
17,O=C(NC1CCCC1)c1ccc(CSCc2ccccc2F)o1,"inconclusive [inhibitor, single point]"
18,Cc1cccc(C)c1NC(=S)NC(=O)c1ccc(Br)o1,"inconclusive [inhibitor, partial curve, poor fit]"
19,CC(C)OC(=S)N/C(=N\S(=O)(=O)c1ccccc1)c1ccccc1,inactive
20,CCn1c(SCc2c(F)cccc2Cl)nnc1-c1ccco1,"inconclusive [inhibitor, single point]"
21,CC1(C(=O)NCc2ccco2)Cc2c(-c3ccccc3)ccnc2O1 (stereo not drawn),"inconclusive [inhibitor, full curve, poor fit]"
